Measured values as given in publication PMC9911399, “Two distinct binding modes provide the RNA-binding protein RbFox with extraordinary sequence specificity”.
Where a chain is given by its changes, count along the chain named. The list shows a part of the results.

T1: RBFOX1 RRM (Homo sapiens, UniProt Q9NWB1 109-208)
T1 sequence: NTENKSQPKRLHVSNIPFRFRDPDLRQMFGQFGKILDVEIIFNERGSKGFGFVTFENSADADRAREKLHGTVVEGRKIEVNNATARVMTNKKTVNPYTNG

B1: AGUCCGG (DNA:RNA)
RNA: GGGAGACCGGAAUUCAGAUUGUCCAGUCCGGUUAAAUCCCGUCGUAGCCACCA
DNA 1: CAATCTGAATTCCGGTCTCCC
DNA 2: TGGTGGCTACGACGGGATT
B2: CCAACAU (DNA:RNA)
RNA: B1 RNA with A25C, G26C, U27A, C28A, G30A, G31U
DNA 1: CAATCTGAATTCCGGTCTCCC
DNA 2: TGGTGGCTACGACGGGATT
B3: GCAACUC (DNA:RNA)
RNA: B1 RNA with A25G, G26C, U27A, C28A, G30U, G31C
DNA 1: CAATCTGAATTCCGGTCTCCC
DNA 2: TGGTGGCTACGACGGGATT
B4: CGCAAUG (DNA:RNA)
RNA: B1 RNA with A25C, U27C, C28A, C29A, G30U
DNA 1: CAATCTGAATTCCGGTCTCCC
DNA 2: TGGTGGCTACGACGGGATT
B5: UGCUUGU (DNA:RNA)
RNA: B1 RNA with A25U, U27C, C28U, C29U, G31U
DNA 1: CAATCTGAATTCCGGTCTCCC
DNA 2: TGGTGGCTACGACGGGATT
B6: ACACAUU (DNA:RNA)
RNA: B1 RNA with G26C, U27A, C29A, G30U, G31U
DNA 1: CAATCTGAATTCCGGTCTCCC
DNA 2: TGGTGGCTACGACGGGATT
B7: GUGGACA (DNA:RNA)
RNA: GGGAGACCGGAAUUCAGAUUGUCCGUGGACAUUAAAUCCCGUCGUAGCCACCA
DNA 1: CAATCTGAATTCCGGTCTCCC
DNA 2: TGGTGGCTACGACGGGATT
B8: UCUACCA (DNA:RNA)
RNA: B1 RNA with A25U, G26C, C28A, G30C, G31A
DNA 1: CAATCTGAATTCCGGTCTCCC
DNA 2: TGGTGGCTACGACGGGATT
B9: AUGUCCG (DNA:RNA)
RNA: B1 RNA with G26U, U27G, C28U, G30C
DNA 1: CAATCTGAATTCCGGTCTCCC
DNA 2: TGGTGGCTACGACGGGATT

Target: T1, RBFOX1 RRM
Test: EMSA; HiTS-Eq, 1 nM pool, 10 min; buffer printed only for the single-RNA assays: 10 mM Tris pH 7.5, 150 mM NaCl, 3.4 mM EDTA, 0.001% NP-40, 30 C
Conditions: tags: His6 N-terminal (pET28a); label: 5' 32P
In short: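 These values rest on relative association constants, computed from read-count changes of each RNA species versus the control reaction and normalised to the cognate motif. Reads came from free RNA recovered by 8% native PAGE after purified RbFox RRM (wild type or mutant) at increasing concentrations was equilibrated for 10 min in 50 µL with 1 nM of a 5′-radiolabelled pool with 7 randomized nucleotides and DNA-annealed flanks.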

**Q.** B1 was tested. Which binding signal did it give?
**A.** Its binding signal is 0.00695 KA relative to UGCAUGU.

**Q.** For B2, which binding signal is on record?
**A.** Its binding signal is 0.000219 KA relative to UGCAUGU.

**Q.** B3 was tested. Which binding signal did it give?
**A.** The binding signal was 0.00821 KA relative to UGCAUGU.

**Q.** Which binding signal does the source give for B4 here?
**A.** Its binding signal is 0.00995 KA relative to UGCAUGU.

**Q.** Which binding signal does the source give for B5 here?
**A.** Its binding signal is 0.0532 KA relative to UGCAUGU.

**Q.** B6 was tested. Which binding signal did it give?
**A.** Its binding signal is 0.000256 KA relative to UGCAUGU.

**Q.** With B7 as the binder, how does the binding signal read?
**A.** Its binding signal is 0.00586 KA relative to UGCAUGU.

**Q.** For B8, which binding signal is on record?
**A.** Its binding signal is 0.00171 KA relative to UGCAUGU.

**Q.** Which binding signal does the source give for B9 here?
**A.** The binding signal was 0.00957 KA relative to UGCAUGU.
